# Results as given in PubChem BioAssay AID2528 (National Center for Advancing Translational Sciences (NCATS), 2010).
# In all, about 350,000 compounds went through this assay and about 700 (0.2%) were called active. The call rests on the fitted dose curve; in most records, active means well fitted inhibition curve with a large enough effect; inconclusive means small, poorly fitted or top-dose-only effect; inactive means flat fitted curve, though single readings scatter. This is a selection; strong and weak results do not stand in their true shares. Some compounds were tested as several samples or in several runs, with calls that do not always agree.
# Target: RecQ-like DNA helicase BLM (Homo sapiens) (UniProt P54132)
# Chain of UniProt P54132 (P54132 whole entry, looked up): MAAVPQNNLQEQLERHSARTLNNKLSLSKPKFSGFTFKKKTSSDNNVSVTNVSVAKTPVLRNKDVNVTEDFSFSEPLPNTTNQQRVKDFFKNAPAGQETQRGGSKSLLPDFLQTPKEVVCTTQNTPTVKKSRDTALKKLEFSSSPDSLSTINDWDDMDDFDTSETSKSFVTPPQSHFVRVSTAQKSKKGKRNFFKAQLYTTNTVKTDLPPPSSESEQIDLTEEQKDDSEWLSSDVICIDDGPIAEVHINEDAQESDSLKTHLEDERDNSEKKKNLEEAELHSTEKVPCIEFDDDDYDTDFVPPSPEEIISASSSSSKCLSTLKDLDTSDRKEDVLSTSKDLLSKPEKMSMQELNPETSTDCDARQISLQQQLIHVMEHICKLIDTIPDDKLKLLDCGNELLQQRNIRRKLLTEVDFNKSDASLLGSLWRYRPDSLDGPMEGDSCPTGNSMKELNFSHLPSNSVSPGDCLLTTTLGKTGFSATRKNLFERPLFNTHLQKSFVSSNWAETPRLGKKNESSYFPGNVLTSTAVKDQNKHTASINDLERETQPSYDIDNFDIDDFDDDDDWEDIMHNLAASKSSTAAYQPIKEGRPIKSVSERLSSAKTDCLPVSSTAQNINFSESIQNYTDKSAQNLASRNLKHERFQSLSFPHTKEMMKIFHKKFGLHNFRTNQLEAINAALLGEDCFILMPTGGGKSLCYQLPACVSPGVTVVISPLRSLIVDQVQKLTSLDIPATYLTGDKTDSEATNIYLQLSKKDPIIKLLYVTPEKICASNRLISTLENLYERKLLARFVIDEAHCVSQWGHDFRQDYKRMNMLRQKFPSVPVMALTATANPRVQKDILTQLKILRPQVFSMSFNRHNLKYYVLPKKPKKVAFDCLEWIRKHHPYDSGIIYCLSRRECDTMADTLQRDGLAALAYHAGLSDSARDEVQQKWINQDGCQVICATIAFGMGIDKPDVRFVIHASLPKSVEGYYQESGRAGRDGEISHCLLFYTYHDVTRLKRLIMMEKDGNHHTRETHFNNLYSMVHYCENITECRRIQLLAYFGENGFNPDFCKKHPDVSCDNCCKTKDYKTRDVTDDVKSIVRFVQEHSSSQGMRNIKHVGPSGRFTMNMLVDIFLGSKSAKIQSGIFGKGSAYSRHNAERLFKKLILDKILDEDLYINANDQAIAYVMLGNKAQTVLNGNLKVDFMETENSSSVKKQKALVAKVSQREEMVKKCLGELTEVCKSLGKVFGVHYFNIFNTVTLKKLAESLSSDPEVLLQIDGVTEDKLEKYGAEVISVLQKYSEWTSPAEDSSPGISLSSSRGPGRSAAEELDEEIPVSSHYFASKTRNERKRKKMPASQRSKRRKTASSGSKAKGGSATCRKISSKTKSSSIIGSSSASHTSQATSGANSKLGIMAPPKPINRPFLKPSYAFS
# Test: qHTS Assay for Inhibitors of Bloom's syndrome helicase (BLM); further: nearly all actives have a fitted effect of over 35% in size;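 on activity change, negative = inhibition: plate controls were vehicle for no effect and no enzyme for full effect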
# Settings: recombinant BLM DNA unwinding, fluorescence dequenching; series mostly up to 56.1 µM; activity change, negative = inhibition: at the top concentration
# Potency means the concentration at half of the fitted maximal effect.
Compound,Potency,"activity change, negative = inhibition"
CN(C)CCCN1c2ccccc2Sc2ccc(C(F)(F)F)cc21,inactive,–
CCCCNC(=O)c1ccc2nc(-c3ccco3)c(-c3ccco3)nc2c1,active: 15.8 µM,–
CC12CCC(=O)C=C1CCC1C2CCC2(C)C1CC[C@]2(O)C(=O)CO (stereo not given in full),–,inactive: -0.117%
COC(=O)C1=C(C)NC(C)=C([N+](=O)[O-])C1c1ccccc1C(F)(F)F (stereo not given),–,inactive: -14.8%
COCCCCC(=NOCCN)c1ccc(C(F)(F)F)cc1,inactive,–
C#C[C@]1(O)CCC2C3CCC4=Cc5oncc5C[C@@]4(C)C3CC[C@@]21C (stereo not given in full),–,inactive: 1.1%
CN(Cc1cnc2nc(N)nc(N)c2n1)c1ccc(C(=O)N[C@H](CCC(=O)O)C(=O)O)cc1,–,inactive: -4.15% [at 21.4 µM]
CN1CCN(C2=Nc3ccccc3Oc3ccc(Cl)cc32)CC1,inactive,–
CC(=O)OCC(=O)[C@@]1(O)CC[C@H]2[C@@H]3CCC4=CC(=O)CC[C@]4(C)[C@H]3C(=O)C[C@@]21C,–,inactive: 0.0933%
O=C1c2c(O)cc(O)cc2OC(c2ccc(O)c(O)c2)C1O (stereo not given),–,inactive: -1.39%
O=C1c2c(O)cc(O)cc2O[C@H](c2ccc(O)c(O)c2)[C@H]1O,–,inactive: -3.83%
CCOC(=O)c1ccc2c(c1)C1C=CCC1C(C(=O)O)N2 (stereo not given),active: 28.2 µM,–
C[C@@H]1CC[C@@H]2C(=O)N3[C@@H](CC[C@@H](C)[C@@H]3c3ccc(-c4ccco4)cc3)C(=O)N2[C@H]1c1ccc(-c2ccco2)cc1,–,inactive: -22.8% [at 12.4 µM]
Oc1ccc(NCc2ccccc2OCc2ccccc2F)cc1,–,inactive: -7.1%
O=C(/C=C\c1ccc(O)c(O)c1)O[C@@H](Cc1ccc(O)c(O)c1)C(=O)O,–,inactive: -0.945%
O=C(C[n+]1ccc(C(=O)N/N=C/c2ccc(OCc3ccccc3)cc2)cc1)c1ccccc1,active: 35.5 µM,–
Oc1ccc(O)cc1,inactive,–
C[C@H]1C[C@H]2[C@@H]3CCC4=CC(=O)C=C[C@]4(C)[C@@]3(Cl)[C@@H](O)C[C@]2(C)[C@@]1(O)C(=O)CO,inactive,–
CC(C)Cn1c(N)c(C(=O)NCc2cccs2)c2nc3ccccc3nc21,active: 31.6 µM,–
CCCCCCCCCCCCCCC[C@@H](O)[C@@H](N)CO,inactive,–
CN(C)[C@H]1C(=O)C(C(=O)NCN2CCCC2)=C(O)[C@]2(O)C(=O)C3=C(O)c4c(O)cccc4[C@@](C)(O)[C@H]3C[C@@H]12,–,inactive: -13.4% [at 21.4 µM]
CC(=O)Oc1cc(C(C)C)c(OCCN(C)C)cc1C,inactive,–
CC1=C(/C=C/C(C)=C/C=C/C(C)=C/C(=O)Nc2ccc(O)cc2)C(C)(C)CCC1,inactive,–
CN=C(N)NCCC[C@H](N)C(=O)O,–,inactive: -0.67%

Compound,Potency,"activity change, negative = inhibition"
FC(F)(F)c1cc(CO[C@H]2CCCN[C@H]2c2ccccc2)cc(C(F)(F)F)c1,–,inactive: -1.84%
CCCCCCCCCCCCC/C=C\[C@@H](O)[C@@H](N)CO,–,inactive: -1.15%
COc1cccc2c1C(=O)c1c(O)c3c(c(O)c1C2=O)C[C@](O)(C(C)=O)C[C@H]3O[C@@H]1C[C@H](N)[C@H](O)[C@H](C)O1,active: 14.1 µM,–
O=C(O)C1=CCNCC1,inactive,–
CC1(C)Cc2c(C#N)c(N3CCN(C(=O)c4ccccc4)CC3)nc(-c3ccco3)c2CS1,active: 28.2 µM,–
CS(=O)(=O)Nc1ccc([N+](=O)[O-])cc1Oc1ccccc1,inactive,–
CC[C@]1(O)CC2CN(CCc3c([nH]c4ccccc34)[C@@](C(=O)OC)(c3cc4c(cc3OC)N(C=O)[C@H]3[C@@](O)(C(=O)OC)[C@H](OC(C)=O)[C@]5(CC)C=CCN6CC[C@]43[C@@H]65)C2)C1 (stereo not given in full),–,inactive: -4.73%
Cc1ccc(/C(=C\CN2CCCC2)c2ccccn2)cc1,inactive,–
NC(=O)c1ncn([C@@H]2O[C@H](CO)[C@@H](O)[C@H]2O)c1O,–,inactive: -3.33%
CC[C@H](C)C(=O)O[C@H]1CCC=C2C=C[C@H](C)[C@H](CC[C@@H]3C[C@H](O)CC(=O)O3)[C@H]21,–,inactive: -11.7%
CN1CCCC1CCO[C@@](C)(c1ccccc1)c1ccc(Cl)cc1 (stereo not given in full),–,inactive: -0.377%
Cc1ccc(C(=O)Nc2nnc(CC(=O)N/N=C/c3ccc(O)c(O)c3)s2)cc1,active: 12.6 µM,–
O=c1c(-c2ccc(O)cc2)coc2cc(O)cc(O)c12,inactive,–
Cc1cn(C2CC(N=[N+]=[N-])C(CO)O2)c(=O)[nH]c1=O (stereo not given),–,inactive: -6.79%
CC(C)C[C@H](NC(=O)[C@@H](O)[C@H](N)Cc1ccccc1)C(=O)O,inactive,–
Nc1ccc(O)c2c1C(=O)c1ccccc1C2=O,active: 14.1 µM,–
COC(=O)[C@H]1[C@H]2C[C@@H]3c4[nH]c5cc(OC)ccc5c4CCN3C[C@H]2C[C@@H](OC(=O)c2cc(OC)c(OC)c(OC)c2)[C@@H]1OC,–,inactive: -10.4%
N[C@H](C(=O)O)[C@H](O)C(=O)O,–,inactive: -0.53%
CNC[C@H](O)c1cccc(O)c1,inactive,–
CSc1nc(N)c2ncn([C@H]3O[C@H](COP(=O)(O)OP(=O)(O)O)[C@@H](O)[C@@H]3O)c2n1,–,inactive: -4.94%
COC(=O)c1ccc(COc2ccc(/C=C(\C#N)c3nc4ccccc4[nH]3)cc2OC)o1,active: 14.1 µM,–
CCN(CC)CCNC(=O)c1ccc(NC(C)=O)cc1,inactive,–
CCCCCCN(CCCCCC)C(=O)Cc1c(-c2ccc(F)cc2)[nH]c2ccccc12,–,inactive: -15.9%
Cc1cc(=O)c2c(O)c3c(O)cc(O)c4c5c(O)cc(O)c6c(O)c7c(=O)cc(C)c8c1c2c(c34)c(c65)c78,active: 20 µM,–

Compound,Potency,"activity change, negative = inhibition"
c1ccc(CSc2nnc(-c3ccco3)c(-c3ccco3)n2)cc1,active: 14.1 µM,–
C/C=C1\C(=O)CC2C3CCC4=CC(=O)CC[C@]4(C)C3CC[C@]12C (stereo not given in full),–,inactive: -6.71%
Cc1cc(C(=O)O)ccc1-c1ccc(/C=C2\SC(=O)N(CC(=O)Nc3ccc4c(c3)OCO4)C2=O)o1,active: 11.2 µM,–
O=C(O)[C@@H]1C[C@@H](C(=O)O)N1,–,inactive: -1.56%
CC(C)NCC(O)c1ccc(NS(C)(=O)=O)cc1 (stereo not given),inactive,–
CC1=C(C)C(=O)C(CCCCC#CCCCC#CCO)=C(C)C1=O,–,inactive: -12.1%
COc1cc2c(cc1O)CC[C@@H]1[C@@H]2CC[C@]2(C)[C@@H](O)CC[C@@H]12,–,inactive: -7.84%
CC12C=C(/C=C/CCc3ccco3)C(C)(C1)[C@H](CCc1ccco1)CC2=O (stereo not given in full),–,inactive: -3.52%
CCCCCCCCCCCCCCCCCCOC[C@H](COP(=O)([O-])OCC[N+](C)(C)C)OC,–,inactive: -4.01%
CO[C@]1(C2=NCCN2)COc2ccccc2O1,–,inactive: 4.25%
CCc1ccc(S(=O)(=O)/N=C2\C=C(Nc3cccc(C(=O)O)c3)C(=O)c3ccccc32)cc1,active: 25.1 µM,–
COc1ccc([C@@H]2CNC(=O)C2)cc1OC1CCCC1,inactive,–
COc1ccc2nc3cccc(OC)c3nc2c1,active: 3.55 µM,–
CC(=O)c1sc2nc(CSc3nnnn3-c3ccccc3)[nH]c(=O)c2c1C,active: 15.8 µM,–
O=C(O)C1Nc2ccc(Br)cc2C2C=CCC12 (stereo not given),active: 15.8 µM,–
COc1ccc(CCN(C)CCc2ccc(OC)c(OC)c2)cc1OC,–,inactive: -6.14%
CC#C[C@@]1(O)CC[C@H]2[C@@H]3CCC4=CC(=O)CCC4=C3[C@H](c3ccc(N(C)C)cc3)C[C@]21C,–,inactive: -0.828% [at 21.4 µM]
N#Cc1c(NC(=O)CSc2ncnc3sccc23)oc(-c2ccco2)c1-c1ccco1,active: 20 µM,–
CN(C)CC[C@H](c1ccc(Cl)cc1)c1ccccn1,–,inactive: 1.23% [at 21.4 µM]
Cn1c(=O)c(C(=O)COC(=O)c2cc(-c3ccco3)nc3ccccc23)c(N)n(Cc2ccccc2)c1=O,–,inactive: -18.5%
NC(=O)CC[C@@H](N)C(=O)O,–,inactive: -8.79%
CC(C)(C)NC[C@H](O)COc1nsnc1N1CCOCC1,inactive,–
CC(C)Cn1c(N)c(C(=O)NCC2CCCO2)c2nc3ccccc3nc21 (stereo not given),active: 8.91 µM,–
CO[C@]1(NC(=O)CSCC#N)C(=O)N2C(C(=O)O)=C(CSc3nnnn3C)CS[C@H]21,–,inactive: -1.75%

Compound,Potency,"activity change, negative = inhibition"
COc1cc2c(cc1OC)-c1cc(=Nc3c(C)cc(C)cc3C)n(C)c(=O)n1CC2,–,inactive: -8.41%
CC1=C(C(=O)O)N2C(=O)C(NC(=O)C(N)C3=CCC=CC3)C2SC1 (stereo not given),–,inactive: -1.42%
O=C(O)c1cccc(-n2cccc2/C=C2/NC(=O)N(c3ccc(Cl)cc3)C2=O)c1,active: 3.55 µM,–
CCSC(=N)N,inactive,–
CC(=O)c1ccc(S(=O)(=O)NC(=O)NC2CCCCC2)cc1,inactive,–
Nc1c(/C=C2/C=CC(=O)C(O)=C2)c(=O)nc2sc(CC(=O)N3CCCCC3)nn12,active: 28.2 µM,–
Nc1ncn([C@@H]2O[C@H](CO)[C@@H](O)[C@H]2O)c(=O)n1,–,inactive: -5.47%
COc1ccc(CN(CCN(C)C)c2ccccn2)cc1,inactive,–
Cc1ccc2c(c1)C1C=CCC1C(C(=O)O)N2 (stereo not given),active: 14.1 µM,–
C[C@@H](/C=C\c1cccc(Oc2ccc(F)cc2)c1)N(O)C(N)=O,–,inactive: -10.4%
CCN1/C(=C\C(C)=O)Sc2ccc(OC)cc21,–,inactive: -0.473%
c1ccc(C2CN3CCSC3=N2)cc1 (stereo not given),inactive,–
COc1cc(/C=N/NC(N)=O)ccc1OCC(=O)Nc1ccc(C)c(C)c1,active: 10 µM,–
O=C(CSc1nnc2scc(-c3ccccc3)n12)Nc1nsc(-c2ccccc2)n1,active: 20 µM,–
NCCC(=O)NCCc1cnc[nH]1,–,inactive: 1.48% [at 21.4 µM]
CC(=O)OCC1=C(C(=O)O)N2C(=O)C(NC(=O)Cc3cccs3)C2SC1 (stereo not given),–,inactive: 25.2%
C[C@]12CCC3c4ccc(O)cc4CCC3[C@@H]1CCC2=O (stereo not given in full),–,inactive: -0.716% [at 21.4 µM]
Cc1ccccc1/C=C/c1nc2ccccc2c(=O)[nH]1,–,inactive: -21.7%
COc1ccccc1NC(=O)Cn1c(O)c(N=NC(=O)c2ccccc2O)c2ccccc21,active: 17.8 µM,–
CS(=O)(=O)c1ccc2c(c1)sc1nc(=O)c(/C=C3/C=CC(=O)C(O)=C3)c(N)n12,active: 25.1 µM,–
CN(C)CCC[C@]1(c2ccc(F)cc2)OCc2cc(C#N)ccc21,–,inactive: 0.67%
C=CCN1CCc2cc(O)c(O)cc2[C@H](c2ccccc2)C1,–,inactive: 3.63%
O=C1C(Cl)=C(NC2CCc3ccccc32)C(=O)c2ncccc21 (stereo not given),active: 2.51 µM,–
